Results: PubChem BioAssay AID602310 (National Center for Advancing Translational Sciences (NCATS), 2012)
In all, about 410,000 compounds went through this assay and about 310 (0.076%) were called active. Another 2% or so got no clear call; they are omitted. The call rests on the fitted dose curve; in most records, active means well fitted curve in the direction sought with a large enough effect; inconclusive means small, poorly fitted or top-dose-only effect; inactive means flat fitted curve, though single readings scatter. This is a selection; strong and weak results do not stand in their true shares.

biological target: DNA dC->dU-editing enzyme APOBEC-3G (Homo sapiens) (UniProt Q9HC16); experiment: qHTS for Inhibitors of Vif-A3G Interactions: qHTS; settings: HeLa A3G-eYFP + Vif (tagged APOBEC3G with the HIV-1 protein that degrades it), YFP fluorescence, overnight; series mostly up to 46.1 µM; activity, negative = active: at the top concentration; further: nearly all actives have a fitted effect of over 60% in size;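 on activity, negative = active: hits raise eYFP signal because A3G escapes Vif-driven loss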
UniProt Q9HC16, sequence (Q9HC16 whole entry, looked up): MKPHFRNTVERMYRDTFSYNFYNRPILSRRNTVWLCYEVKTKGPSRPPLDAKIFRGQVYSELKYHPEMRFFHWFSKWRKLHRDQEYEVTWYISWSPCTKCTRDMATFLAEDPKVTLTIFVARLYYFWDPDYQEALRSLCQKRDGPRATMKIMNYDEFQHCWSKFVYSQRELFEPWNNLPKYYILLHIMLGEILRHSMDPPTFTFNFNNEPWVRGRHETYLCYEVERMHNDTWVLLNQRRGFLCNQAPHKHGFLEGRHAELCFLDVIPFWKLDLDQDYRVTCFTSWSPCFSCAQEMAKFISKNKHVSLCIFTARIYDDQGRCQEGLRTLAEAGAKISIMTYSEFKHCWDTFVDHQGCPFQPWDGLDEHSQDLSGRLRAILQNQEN
Text: The recent discovery and characterization of host restriction factors, which provide a potent defense to invading retroviruses, has provided new targets for antiviral drug development. APOBEC3G (A3G) and APOBEC3F (A3F) are potent cytidine deaminases that block HIV-1 replication; HIV-1 expresses the Vif protein, which counteracts A3G and A3F by binding to them and inducing their proteasomal degradation. The Vif-A3G and Vif-A3F interactions provide two potential targets for development of small molecules which can interfere with the ability of Vif to degrade A3G or A3F. […] To identify inhibitors that can interfere with Vif mediated degradation of A3G and A3F, we have developed Hela cell lines that stably express A3G or A3F tagged with eYFP at the C-terminal end (A3G-eYFP or A3F-eYFP, respectively) and Vif. In the absence of an inhibitor, Vif induces degradation of A3G-eYFP and A3F-eYFP, and the cells are not fluorescent. In the presence of an inhibitor, it is expected that Vif will be unable to degrade A3G-eYFP and/or A3F-eYFP, resulting in an increase in yellow fluorescence. In this assays Vif A3G was screened against the Molecular Library Small Molecule Repository (MLSMR). NIH Chemical Genomics Center [NCGC] NIH Molecular Libraries Probe Centers Network [MLPCN] MLPCN Grant: MH093245 Assay Submitter (PI): Vinay Pathak, National Cancer Institute
5 uL of 700 cells/well of A3G-YFP cells are dispensed into black, clear bottom plates. The plates are incubated overnight at 37 deg C. 23 nL of compounds are added by pintool. The plates are incubated overnight at 37 deg C and then read on the TTP Acumen (Ex 488/ Em 500-530).
On the % scale 0 is the no-effect control and ±100 the full control effect; potency means the concentration at half of the fitted maximal effect.

Structure (SMILES) | activity, negative = active | Potency
Cc1cccc(NC(=O)CSc2nc3ccccc3c3nc(CCc4c(C)n[nH]c4C)nn23)c1 | inactive: -18.7% | –
CCOC(=O)c1ccc(NC(=O)CSc2nc(-c3cccs3)cc(C(F)(F)F)c2C#N)cc1 | inactive: -6.5% | –
COc1cc(-c2noc(C)c2C#Cc2ccc(N)cc2)cc(OC)c1OC | inactive: -23.3% | –
CCN(CC)c1ccc(/C=C/c2ccccn2)cc1 | – | active: 3.16 µM
CCOC(=O)N1C(=O)[C@](c2ccc(Cl)cc2)(C(C)C)N1C(=O)OCC | inactive: -28.5% | –
O=C(CNC(=O)Cc1ccccc1)NCC(=O)OCC(=O)c1cccc2ccccc12 | inactive: -3.48% | –
COc1ccc(OC)c(NS(=O)(=O)c2ccc(-n3cccn3)cc2)c1 | inactive: -27.5% | –
N#C/C(=C/c1ccncc1)c1nc2ccccc2c(=O)[nH]1 | inactive: 0.354% | –
Cc1cccc(CS(=O)(=O)c2ncc(Cl)c(C(=O)Nc3nnc(C(C)C)s3)n2)c1 | inactive: -12.1% | –
O=C(/C=C\c1ccco1)Oc1cccc2cccnc12 | inactive: 0.0799% | –
COc1ccc(CN([C@H](CO)CC(C)C)S(=O)(=O)N(Cc2ccccc2)[C@H](CO)CC(C)C)cc1 | inactive: -13.8% | –
O=C(/C=C/c1ccc(-c2ccccc2)o1)c1ccccc1 | inactive: -23.7% | –
C=CCOC(=O)C1=C[C@H](c2ccccc2)[C@@H](CCCO)[C@H](OCC)O1 | inactive: -3.71% | –
O=C(Nc1ccc2c(c1)CCCN2C(=O)c1cccs1)c1c(F)cccc1F | inactive: -30.2% | –
Cc1ccc2nc(/C(C#N)=C/c3ccc(-c4cccc(Cl)c4)o3)[nH]c2c1 | – | active: 7.94 µM
COc1ccc(N=Cc2c(O)c3ccccc3n2C(C)=O)cc1 | – | active: 12.6 µM
COc1ccc(CNC(=O)c2nc(S(=O)(=O)Cc3ccccc3)ncc2Cl)cc1 | inactive: -19.7% | –
Cc1ccc(N(C)S(=O)(=O)c2ccc(-c3cnc(C4CC4)o3)cc2)cc1 | inactive: -34% | –
O=C(CSc1nc2c([nH]c3ccccc32)c(=O)n1-c1cccc(Cl)c1)N1CCOCC1 | inactive: -0.261% | –
COc1ccccc1Nc1nn2c(=O)c3ccc(C(=O)N4CCCCC4)cc3nc2s1 | inactive: 0.963% | –
Cc1[nH]c2ccccc2c1C(=O)/C=C/c1ccccc1Cl | inactive: -25.4% | –
C[C@@H]1CC=C[C@H]2[C@H]1C(=O)N(Cc1ccccc1)[C@H]2c1ccoc1 | inactive: -16% | –
COc1cc(-c2cc(O)c(-c3ccc4ccccc4n3)c(=O)[nH]2)cc(OC)c1OC | – | active: 10 µM
CC1=CC(C)(C)Nc2ccc(OC(=O)c3ccco3)cc21 | – | active: 11.2 µM
CN(C)c1ccc(C=Cc2ccnc3ccccc23)cc1N | inactive: -12.9% | –
NN=C1c2ccccc2C(=O)C1C(=O)C(c1ccccc1)c1ccccc1 (configuration not stated) | – | active: 11.2 µM
COC(C/C=C/C(=O)[C@@H](C)OCc1ccccc1)OC | inactive: -0.341% | –
